Laboratory results from article PMC4336329 (PLoS ONE, 2015).
The campaign covered roughly 310,000 compounds. About 2,200 (0.71%) showed an effect of 50% or more. The effect is printed as a negative number. The list shows a part of the results.

These compounds were tested against human ether-à-go-go-related gene (hERG) potassium channel (human, UniProt Q12809) (assay: primary screen, population patch clamp on CHO cells stably expressing hERG).
human ether-à-go-go-related gene (hERG) potassium channel, sequence (Q12809 whole entry, looked up): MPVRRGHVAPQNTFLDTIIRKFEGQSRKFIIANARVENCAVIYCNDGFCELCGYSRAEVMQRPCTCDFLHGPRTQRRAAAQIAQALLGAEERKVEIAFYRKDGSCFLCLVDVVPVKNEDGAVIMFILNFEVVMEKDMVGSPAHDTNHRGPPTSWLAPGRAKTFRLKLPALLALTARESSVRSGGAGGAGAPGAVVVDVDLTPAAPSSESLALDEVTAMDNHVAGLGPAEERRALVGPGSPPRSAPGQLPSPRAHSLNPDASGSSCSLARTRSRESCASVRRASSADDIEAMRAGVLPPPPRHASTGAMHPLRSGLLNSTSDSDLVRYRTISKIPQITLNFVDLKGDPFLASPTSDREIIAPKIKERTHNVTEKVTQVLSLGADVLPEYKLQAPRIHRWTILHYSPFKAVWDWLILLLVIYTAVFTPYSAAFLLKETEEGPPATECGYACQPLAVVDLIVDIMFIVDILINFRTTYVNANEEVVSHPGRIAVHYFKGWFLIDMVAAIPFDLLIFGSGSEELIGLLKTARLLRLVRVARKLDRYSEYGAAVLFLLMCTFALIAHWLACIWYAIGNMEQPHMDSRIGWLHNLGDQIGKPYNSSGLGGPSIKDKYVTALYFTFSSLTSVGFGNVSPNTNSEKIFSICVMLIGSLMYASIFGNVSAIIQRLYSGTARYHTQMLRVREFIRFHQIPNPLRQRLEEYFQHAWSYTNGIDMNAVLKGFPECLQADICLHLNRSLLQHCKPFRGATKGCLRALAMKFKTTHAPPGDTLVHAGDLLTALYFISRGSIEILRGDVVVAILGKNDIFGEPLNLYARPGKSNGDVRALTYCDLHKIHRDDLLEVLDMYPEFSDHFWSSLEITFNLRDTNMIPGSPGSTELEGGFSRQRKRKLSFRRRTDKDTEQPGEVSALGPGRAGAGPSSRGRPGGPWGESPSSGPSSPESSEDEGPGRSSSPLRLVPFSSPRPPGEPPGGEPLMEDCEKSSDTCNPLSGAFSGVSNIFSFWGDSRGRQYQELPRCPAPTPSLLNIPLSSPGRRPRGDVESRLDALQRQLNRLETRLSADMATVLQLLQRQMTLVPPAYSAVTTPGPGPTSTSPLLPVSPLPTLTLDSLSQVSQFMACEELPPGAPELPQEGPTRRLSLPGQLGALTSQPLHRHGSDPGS

Row | Structure (SMILES) | hERG current change (%, negative = inhibition) at 1uM [%]
1 | O=c1[nH]c2cc3c(cc2cc1CN(Cc1nnnn1CC1CCCO1)C1CCCCC1)OCO3 (centres unmarked) | 8.84
2 | CC(=O)Nc1ncc(Cc2cccc(Cl)c2)s1 | 9.23
3 | CCOC(=O)c1sc(NC(=O)COC(=O)C(CCSC)NC(C)=O)nc1C (centres unmarked) | -1.14
4 | Nc1nc2ccccc2n1CCOc1ccc(Br)cc1 | -15.4
5 | O=C(COC(=O)C1CCC1)Nc1ccccc1Sc1ccccc1 | 12.9
6 | Cc1ccc(CNS(=O)(=O)c2c(C(=O)N3CCCCC3)c(C)n(C)c2C)o1 | 16.9
7 | COc1ccc2nc(NC(=O)CSc3nc4ccccc4o3)sc2c1 | 12.8
8 | S=C(Nc1ccccc1Cl)N1CCC(c2ccccc2)C1 (centres unmarked) | -6.92
9 | c1coc(-c2nnc(-c3cccs3)o2)c1 | 7.51
10 | O=C(OCn1nnc2ccccc2c1=O)c1cccs1 | 3.91
11 | Cc1cc(NC(=O)Cn2cc([N+](=O)[O-])cn2)n(Cc2ccc(F)cc2)n1 | 8.19
12 | CCc1nc2ccc(F)cc2c(C(=O)NC2CCCCC2C)c1C (centres unmarked) | 12.9
13 | COc1cccc(C2CC(c3cccc(Br)c3)n3ncnc3N2)c1 (centres unmarked) | -17.2
14 | COC(=O)c1ccc(Cn2nc(-c3ccccc3)ccc2=O)cc1 | 5.49
15 | CCCSc1nnc(NC(=O)c2sc3nc(-c4cccs4)ccc3c2N)s1 | 10.5
16 | CC1CCN(c2ccccc2NC(=S)NC(=O)c2ccc(-c3cccc([N+](=O)[O-])c3)o2)CC1 | 10.6
17 | Cc1nn(-c2ccccc2)c2c1C(c1ccc(F)cc1)C(C#N)=C(N)O2 (centres unmarked) | 7.1
18 | Cc1ccc(NC(=O)CNC(=O)Cc2cccc3ccccc23)c(O)c1 | 20.3
19 | Cc1ccc(-n2c(=O)cc(N3CC(C)OC(C)C3)[nH]c2=O)cc1 (centres unmarked) | 10.6
20 | Cc1ccc(C)c(N2CCN(C(=O)Cn3c(=O)[nH]c4ccsc4c3=O)CC2)c1 | 13.1
21 | COc1ccc(C(=O)N=S2CCN(C(=O)c3ccc(Cl)cc3)CC2)cc1 | 0.232
22 | CC(C)(C)c1ccc(OCC(=O)NNC(=S)NC(=O)c2ccccc2[N+](=O)[O-])c(Br)c1 | 15.9

Row | Structure (SMILES) | hERG current change (%, negative = inhibition) at 1uM [%]
23 | COc1ccc(C)cc1NC(=O)c1ccc(NS(=O)(=O)c2c(C)noc2C)cc1 | 13.2
24 | COc1cc(OC)c(NC(=S)NCc2ccc(F)cc2)cc1Cl | 8.5
25 | COc1ccccc1NC(=O)c1ccc(N)cc1 | 9.8
26 | CC1CN(C(=O)c2cccc(COc3ccccc3Cl)c2)CC(C)O1 (centres unmarked) | 4.28
27 | O=C(Nc1sc2c(c1C(=O)O)CCCCC2)c1ccccc1F | 1.44
28 | COc1cc(C2CC(=O)C3=C(C2)Nc2ncnn2C3c2cccs2)cc(OC)c1OC (centres unmarked) | 8.89
29 | Cc1ccc(NC(=O)c2cccc(S(=O)(=O)N3CCCC3)c2)nc1 | 4.12
30 | O=C(Nc1ccc(C(F)(F)F)cc1)C1CCCCN1S(=O)(=O)c1ccccc1 (centres unmarked) | -3.36
31 | Cc1ccc(-c2nc(-c3cccnc3)sc2CC(=O)Nc2ccc3nc(C)sc3c2)cc1 | 1.31
32 | Cc1nc(N2CCC(C(N)=O)CC2)c2nnn(Cc3ccccc3)c2n1 | 16
33 | COc1ccc(/C=C(/CC(=O)NCc2ccc(Cl)cc2)c2nc3ccccc3s2)cc1 | 11.1
34 | CC1CCCCN1S(=O)(=O)c1ccc(N(C(=O)c2cnccn2)C(C(=O)NC2CCCCC2)c2cccs2)cc1 (centres unmarked) | 6.26
35 | CCn1cc(/C=C/C(=O)Nc2ccn(Cc3c(F)c(F)cc(F)c3F)n2)cn1 | 9.01
36 | CC1(C)OC(=O)C=C[C@]2(C)[C@H]3CC[C@@]4(C)[C@H](c5ccoc5)OC(=O)[C@H]5O[C@]54[C@]3(C)C(=O)C[C@@H]12 | 9.45
37 | CN(C)c1ccc(N/C=C/C(=O)c2ccco2)cc1 | 14
38 | COc1ccc(CNC(=O)C(OC(C)=O)c2ccccn2)cc1 (centres unmarked) | 9.68
39 | CC1(C(=O)O)CCC(C(N)=O)C1(C)C (centres unmarked) | 8.16
40 | COc1ccccc1-n1cnc2cc(C(=O)NCC3CCCO3)ccc21 (centres unmarked) | -0.991
41 | O=C(CCCSc1nc2ccccc2[nH]1)NCc1ccccc1Cl | 9.01
42 | COC(=O)CSc1nc(COc2ccccc2)nc2ccccc12 | 12.5
43 | CCOc1ccc(N2C(=O)CC(N3CCC(O)(c4ccc(Br)cc4)CC3)C2=O)cc1 (centres unmarked) | -22.2
44 | Cc1ccc(S(=O)(=O)NCC(=O)N2CCC(C)CC2)cc1 | 9.16
